# Data: PubChem BioAssay (NCI)
# Some structures have more than one record in an assay (separate samples or runs), and their calls can disagree.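 96-well plates, one dose, 48 hours. Percent growth reported; active if below 10.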 A number of entries come with more than one value. Only these are listed. There may be further records. The screen tested this drug many times, at the concentration stated with the values; one value stands for one run. Signs of the kind (2×) stand for listed records that agree.
# Columns and labels:
# A498 renal = experiment: NCI-60 one-dose screen, 48 h (100 = growth as untreated, 0 = no growth, -100 = all killed); conditions: 25 µM
# CCRF-CEM leukemia = experiment: as above; conditions: 0.25 µM
smiles,measurement,setting,value
COc1cccc2c1C(=O)c1c(O)c3c(c(O)c1C2=O)C[C@@](O)(C(=O)CO)C[C@@H]3OC1CC(N)C(O)C(C)O1 (stereo not given in full),growth,A498 renal; runs of 1995,"active: -41.4, -75.6, -47.6, -55.2, -66.4, -80.4, -48.8, -14.3, -77.7, -76.9, -39.8, -68.2, -70.3, -78.4, -83.7, -49.7, -81.7, -70.1, -73.7, -83.6, -67.7, -46.8, -38.1, -64.5, -55.7, -16.5, -47.1, -52.9, -55.4, -26.5, -54.4, -86.3, -65.9, -67.4, -51.1, -18.6, -54.9%"
same,growth,A498 renal; runs of 1996,"active: -82.8 (2×), -47.5, -77.3, -74.6, -73.1, -53.7, -46.8, -32.9, -6.03, -28.5, -31.1, -48.8, -72.1, -40.9, -44.7, -51, -69.6, -75.3, -72.2, -91.7, -64.6, -79, -81.7, -43.2, -45.6, -11.9, -28.6, -55.4, -48.1, -35.7, -82.6, -36.8, -36.2, -22.9, -85.9, -65.8, -73.4, -67.8, -35.1, -85.7, -56.6, -88.4%"
same,growth,A498 renal; runs of 1997,"active: -64.4, -87.7, -23, -31.1, -84.9, -31.7, -76.5, -82, -49.2, -18.8, -18, -58.2, -89.3, -84.3, -91.9, -76.9, -92.1, -34.9, -61.7, -93.7, -48.2, -51.5, -49.4, -62.3, -34.7, -37.5, -17.2, -12.2, -36, -2.41, -44.5, -78, -75.1, -72.6, -13.7, -84.5% and inactive: 31.6%"
same,growth,A498 renal; runs of 1998,"active: -63.5, -62.2, -39.8, -18.4, -25.7, -45.4, -37, -22.3, -74.4, -85.1, -49.9, -52.9, -55, -57.6, -49.1, -69.7, -74.3, -66, -65.4%"
same,growth,A498 renal; runs of 1999,"active: -58.3, -65.2, -68.8, -100, -35, -64.1, -53.1, -88.4, -6.39, -33.3, -55.4, -89.1, -83.9, -30, -88.5%"
same,growth,A498 renal; runs of 2000,"active: -100% (2×), -60.5%, -94.1%"
same,growth,CCRF-CEM leukemia; runs of 2006,"inactive: 16.2%, 13.4%"
same,growth,CCRF-CEM leukemia; runs of 2007,"active: 7.64, -11.9, 5.62, 2.45, 6.93, 5.93, 2.6, 8.13, -2.76, -17.6, -8.48, 4.89, -1.36, 7.56 (2×), 0.292, 3.2, -6.16, -4.18, -1.38, -16.8, -2.86, 9.85, -5.01% and inactive: 22, 12.1, 13.3, 10.2, 11.7, 12.2, 12.6 (2×), 12.4, 10.8, 17.2, 54.7, 29.3, 23.2, 10.5, 60.2, 19.8, 12.7, 12.5, 11.6%"
same,growth,CCRF-CEM leukemia; runs of 2008,"inactive: 20, 12.6, 11.9 (2×), 19.7 (2×), 61, 18.9, 70.9, 14.8, 22.5, 26.1, 37, 11.8, 13.6, 99.1, 10.7, 16.1 (2×), 13.7 (2×), 14.1, 14.4, 13.3, 38.7, 30.3% and active: 8.84, -0.685, 5.19, 5.66, 9.75, -16.1, -20, 5.68, 1.03, 6.76, 8.53, 9.94, 5.45, 4.56, -0.795, 6.64, -3.65, -6.64, -14, -8.47, -4.89, 8.18, 4.18, 2.91, -4.51, 4.03, 9.35, 0.0237%"
same,growth,CCRF-CEM leukemia; runs of 2009,"inactive: 20.5, 22.6 (2×), 22.2, 15.7, 40.9, 39.8, 56.9, 53.5, 27, 30.9, 32.2, 25.5, 26.4, 32.9, 39.7, 18.1, 26, 24, 25.7, 29.2, 42.5, 26.1, 43.2, 43.8, 27.5 (2×), 24.3, 35.8, 33.9, 25.8, 25.3, 27.4, 35.1, 39.4, 40.4, 33.3, 29.5, 28.9, 14.9, 22, 30.3, 46.5, 33.8, 34.5, 38.4, 37.3, 26.2, 23, 31.3 (2×), 23.6, 20.7% and active: 4.37%, 9.66%"
same,growth,CCRF-CEM leukemia; runs of 2010,"inactive: 35.5, 34.6, 24.4 (4×), 22.6, 26, 35.7, 31.5, 42.6, 44, 31.8, 37.6, 37.4, 30.3, 11, 29.7, 17.5, 16.4, 18.5, 21.8, 22.1, 22.9, 30.1, 14.3, 27.5, 33.7, 18 (2×), 19, 21.9, 21.2, 23.2, 26.3, 21.1, 32.9, 27.4, 30.9, 12.2, 23.4% and active: 2.27%"
same,growth,CCRF-CEM leukemia; runs of 2011,"inactive: 35.7, 18.5, 23.1, 35, 45.2, 32.8, 28.8, 15.8, 27.5, 35.2, 32.6, 36.2, 29.7, 31.5 (2×), 43.6, 41.8, 35.5, 29.8, 27.9, 25.1, 32.9 (2×), 26.3, 57.8, 18.9, 31.3, 16, 36.5, 39.5, 19.4, 17.3, 23, 27.1, 15.1, 24.4, 19, 19.2, 14.1, 20.8, 22.2, 31.4, 18.8, 18.6, 14.3, 12.5, 27, 21.4, 22.6, 20%"
same,growth,CCRF-CEM leukemia; runs of 2012,"inactive: 14.3, 24.9, 31.2, 27.5, 23.2, 21.2, 13.5, 19 (3×), 20.3, 20.4 (3×), 11.9 (2×), 28.8, 24.5, 33.1, 33.3, 26.7, 27.9, 44.1, 56.2, 52.8, 52.2, 60.6, 54.2, 49.9, 50.1, 50, 56.4, 66.8, 59.2, 10.6, 10.3, 21.5, 25, 17.2, 20.8, 30.5, 24.3, 23.7, 27.3, 24, 17.8, 29.3, 16.5, 18.3, 20.2, 15.5, 26% and active: 9.46, 4.14, 8.5, 4.54, 9.91, 9.7, 8.05, 9.75, 7.09, 8.66, 9.85%"
same,growth,CCRF-CEM leukemia; runs of 2013,"inactive: 18, 12, 16.2 (2×), 13.5, 23.8, 17.5 (2×), 18.9 (2×), 18.1, 17.4, 17, 19, 19.2 (2×), 24.2, 18.5, 19.8, 21.2 (2×), 20.7, 15.8, 20.1, 15.7, 11.8, 32.7, 20.3, 18.6, 26.7, 32.2, 12.6, 17.7, 17.3 (2×), 17.8, 17.9, 14.1 (2×), 20.4, 15.9, 16.3, 16.5, 17.2, 14, 23.4, 24.7, 24.3, 26.4, 19.4, 27.5, 20.9, 22.6% and active: 8.68, 6.55, 9.72, 6.29, 4.5, 8.03, 9.37, 9.52, 5.15%"
same,growth,CCRF-CEM leukemia; runs of 2014,"inactive: 33.5, 35.4, 35.1, 27.5, 23.8 (2×), 34.4, 32.4, 31.3, 26.6, 25.5 (2×), 32.6 (2×), 26, 40.2, 27.3, 44, 37.7, 29.5, 45.1, 37.6, 24.6 (2×), 23.1, 28.8, 31.2, 20, 18.1, 15.3 (3×), 17.8, 13.1, 14, 19, 22.6 (2×), 14.8, 13.8, 16.5, 15.5, 22.3, 20.7, 13.2, 12.9, 14.2, 14.4, 16.1, 25.4, 23.7, 33.7, 26.1, 30.1, 33.3, 26.2, 31.8, 10.6, 11.8, 34.2, 36.1, 26.4, 23.6, 15.8 (2×), 19.4, 18.9, 32.5, 37.1, 28.9, 50.3, 49.5, 42.1, 34.6, 24.5, 39.4%"
